# ± gives the standard deviation. Only a part is listed here, and it is no random draw.
# Test system: MIWI (PIWIL1) piRISC loaded with L1MC piRNA (30 nt)
# Experiment: pre-steady-state target cleavage rate (min^-1); MIWI and MILI are mouse PIWI proteins and EfPiwi is from a freshwater sponge; tags in brackets are library labels; higher = faster piRNA-guided slicing of the target
# Settings: guide: L1MC piRNA 5'p-UAACUAAAUACUAUGCAAGCUGUAGGUCCU
# In short: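 A burst-and-steady-state fit was used to obtain the pre-steady-state cleavage rate. The input data were sequencing reads of uncleaved targets, normalised to depth and to weakly complementary targets, from a […] transcribed, DNA-blocked target RNA library mixed with 1 nM active affinity-purified piRISC holding one synthetic guide, with or without 500 nM GTSF1 partner protein, in HEPES–potassium acetate buffer at 33 °C for 0–8 or 0–960 min. Three trials were pooled and k3 was capped at 0.0001 min^-1.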
# [1] = auxiliary factor: 500 nM mouse GTSF1
# [2] = auxiliary factor: none (no GTSF1)
# 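Also: 1 nM active piRISC with 0.1 nM target library at 33 °C single turnover.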
Sequence,pre-steady-state target cleavage rate [1],pre-steady-state target cleavage rate [2]
AGGACCUACAGCUUGCAUAGUAUGUUAGUUA,0.601 ± 0.067,0.0392 ± 0.0089
UCCUGCUACAGCUUGCAUAGUUUUUACUUA,0.122 ± 0.021,0.0143 ± 0.0044
UCCUCCUUCAGCUUGCAUAGUAUUUACAAA,0.358 ± 0.045,0.00292 ± 0.002
UCCUGGAACAGCAAGCAUAGUAUUUAGUAA,0.469 ± 0.041,0.00301 ± 0.003
AGGACCUUCAGCUUGCAUAGUAUUUAGUUA,1.32 ± 0.056,0.0842 ± 0.013
UGGACCUACAGCUUGCAUAGUUUUUAGUUA,0.473 ± 0.028,0.0341 ± 0.0085
UCGACCUCCAGCUUGCAUAGUAUUUAGUUA,1.17 ± 0.06,0.0635 ± 0.0099
UCGUCCUACAGCUAGCAUAGUAUUUAGUUA,0.705 ± 0.029,0.0207 ± 0.0032
UCUACCUACAGCUUGCAUAGUAUUUAGUUA,1.4 ± 0.043,0.0731 ± 0.013
UCGACCUACAGGAAGCAUAGUAUUUAGUUA,0.942 ± 0.061,0.00693 ± 0.0018
UCCUGGAUGAGCUUGCAAAGAAUUUAGUUA,0.0445 ± 0.007,0.00657 ± 0.0032
UGCACCUACAGCUUGCAUAGUAUUUAGAUA,0.499 ± 0.043,0.0446 ± 0.013
AGGACGUACAGCUUGCAUAGUAUUUUGUUA,0.757 ± 0.068,0.0469 ± 0.0083
UCGACGUACAGCUUGCAUAGUAUUAAGUUA,0.635 ± 0.039,0.0255 ± 0.0049
UCCUGGAUGAGCUAGCAUAGUAUUUUGUUA,0.373 ± 0.047,0.00615 ± 0.0029
UCGACCUACUCCUUGCAUAGUAUUUAGUUA,1.18 ± 0.039,0.0454 ± 0.0069
UCCUCCUUCAGCUUGCAUAGUAUAUAGUUA,0.666 ± 0.029,0.0172 ± 0.0034
UCCUGGAACAGCUUGCAUAGUAUUUUCUUA,0.127 ± 0.03,0.00808 ± 0.0023
UCCACCUACAGGUUGCAUAGUAUUUAGAUA,0.523 ± 0.057,0.00947 ± 0.0023
UCCUGGAUGAGCUUGCAAUGUAUUUAGUUA,0.0309 ± 0.0055,0.0041 ± 0.0026

# From the supplement of paper PMC10338343
